# Laboratory results published in PubChem BioAssay (Tox21).
# Values joined by “and” are separate entries in the source; they are usually repeats but may differ in a detail not shown here. Equal entries are not always repeated. Where a structure was tested more than once in an assay, its records may differ in their call. Active and inactive are the calls of the source. Unless noted, the call rests on the fitted dose curve; in most records, active means well fitted curve in the direction sought with a large enough effect in the repeat runs; inconclusive means weak or mixed curves; inactive means no such curve, though single readings can be large; an effect the other way counts as inactive or inconclusive.
# How the values were obtained:
# [1] = qHTS assay to identify small molecule antagonists of the androgen receptor (AR) signaling pathway - cell viability counter screen (AID 743033; further: nearly all actives have a fitted effect of over 45% in size; further: potency means the concentration at half of the fitted maximal effect); details: AR-bla HEK293 viability, CellTiter-Glo luminescence, 16 h; activity change, negative = cytotoxicity: at 58.5 µM (top of the series) unless noted
# [2] = qHTS assay to identify aromatase inhibitors - cell viability counter screen (AID 743084); details: MCF-7 aro ERE viability, CellTiter-Fluor, 24 h; activity change, negative = cytotoxicity: at 70.3 µM (top of the series) unless noted;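 further: cells stimulated with testosterone during compound exposure; nearly all actives have a fitted effect of over 55% in size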; further: potency means the concentration at half of the fitted maximal effect
# [3] = qHTS assay to identify small molecule that activate the aryl hydrocarbon receptor (AhR) signaling pathway - cell viability counter screen (AID 743086); further: nearly all actives have a fitted effect of over 45% in size; further: potency means the concentration at half of the fitted maximal effect
# In short: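 HepG2-AhR-luc (HG2L7.5c1) cells, 4000/well, were preincubated 5 h at 37C, exposed to compound in qHTS format for 24 hr at 37C, then given CellTiter-Fluor for 30 min; viability was read as fluorescence in the reporter wells.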
# [4] = qHTS assay to identify small molecule antagonists of the peroxisome proliferator-activated receptor gamma (PPARg) signaling pathway - cell viability counter screen (AID 743194); details: PPARg-bla HEK293H viability, CellTiter-Glo luminescence, 17 h, co-treated with 50 nM rosiglitazone; activity change, negative = cytotoxicity: at 62.6 µM (top of the series) unless noted; further: potency means the concentration at half of the fitted maximal effect; nearly all actives have a fitted effect of over 55% in size
# In short: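 PPARg-UAS-bla HEK293H cells were plated, rested 5 h at 37 C, then treated with compounds plus rosiglitazone (50 nM final) for 17 h at 37 C; viability was then read by CellTiter-Glo luminescence after 30 min at room temperature.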
# [5] = target: Bile acid receptor (Homo sapiens) (UniProt Q96RI1); assay: qHTS assay to identify small molecule antagonists of the farnesoid-X-receptor (FXR) signaling pathway (AID 743217; active means well fitted inhibition curve with a large enough effect in the signal ratio in the repeat runs, not every such curve was filed as active; inconclusive means weak or mixed curves, or effect the other way; inactive means no such curve, though single readings can be large or run the other way; the % refers to the signal ratio; further: on the % scale 0 is the no-effect control and ±100 the full control effect); details: HEK293T FXR-UAS-bla, beta-lactamase ratio, CDCA-stimulated, 16 h; activity change, negative = inhibition: at 62.6 µM (top of the series) unless noted
# UniProt Q96RI1, sequence (Q96RI1 whole entry, looked up): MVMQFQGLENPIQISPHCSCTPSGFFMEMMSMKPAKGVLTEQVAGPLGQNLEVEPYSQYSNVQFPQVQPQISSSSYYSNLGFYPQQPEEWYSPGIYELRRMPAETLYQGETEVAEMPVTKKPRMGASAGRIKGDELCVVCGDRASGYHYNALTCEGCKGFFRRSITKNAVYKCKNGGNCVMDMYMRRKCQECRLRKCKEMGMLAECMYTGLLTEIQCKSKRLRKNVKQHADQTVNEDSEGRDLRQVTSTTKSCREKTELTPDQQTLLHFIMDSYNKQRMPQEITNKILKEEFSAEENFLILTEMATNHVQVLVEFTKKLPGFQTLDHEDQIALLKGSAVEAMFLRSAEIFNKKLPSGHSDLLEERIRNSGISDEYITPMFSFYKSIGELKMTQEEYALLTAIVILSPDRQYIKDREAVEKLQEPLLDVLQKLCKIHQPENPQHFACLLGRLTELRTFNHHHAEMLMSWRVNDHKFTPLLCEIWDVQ
# In short: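 In this cell-based antagonist screen, inhibition of CDCA-driven (50 uM final) UAS-beta-lactamase expression in HEK 293T cells was measured by FRET fluorescence following 16 h compound exposure at 37 °C.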
# [6] = qHTS assay to identify small molecule antagonists of the TGF-beta/Smad signaling pathway (AID 1346924; active means well fitted inhibition curve with a large enough effect in the signal ratio in the repeat runs, not every such curve was filed as active; inconclusive means weak or mixed curves; the % refers to the signal ratio); details: SBE-bla HEK293T, TGF-beta/Smad reporter, beta-lactamase ratio; activity, negative = inhibition: at 76.8 µM (top of the series) unless noted
# In short: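 SBE-bla HEK 293T cells were plated overnight, then received compound in DMSO plus TGF-beta1 (added as a 0.25 ng/mL solution) and were incubated 5 h at 37 C. Beta-lactamase reporter activity was read after 2 h at room temperature with LiveBLAzer B/G FRET substrate (ex 405, em 460/530 nm).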
# [7] = target: Glucocorticoid receptor (Homo sapiens) (UniProt P04150); assay: qHTS assay to identify small molecule agonists of the glucocorticoid receptor (GR) signaling pathway (AID 720691; active means well fitted activation curve with a large enough effect in the signal ratio in the repeat runs, not every such curve was filed as active; inconclusive means weak or mixed curves, or effect the other way; inactive means no such curve, though single readings can be large or run the other way; the % refers to the signal ratio; further: potency means the concentration at half of the fitted maximal effect); details: GR-bla HeLa, beta-lactamase reporter ratio, 18 h; activation: at 62.4 µM (top of the series) unless noted
# UniProt P04150, sequence (P04150 whole entry, looked up): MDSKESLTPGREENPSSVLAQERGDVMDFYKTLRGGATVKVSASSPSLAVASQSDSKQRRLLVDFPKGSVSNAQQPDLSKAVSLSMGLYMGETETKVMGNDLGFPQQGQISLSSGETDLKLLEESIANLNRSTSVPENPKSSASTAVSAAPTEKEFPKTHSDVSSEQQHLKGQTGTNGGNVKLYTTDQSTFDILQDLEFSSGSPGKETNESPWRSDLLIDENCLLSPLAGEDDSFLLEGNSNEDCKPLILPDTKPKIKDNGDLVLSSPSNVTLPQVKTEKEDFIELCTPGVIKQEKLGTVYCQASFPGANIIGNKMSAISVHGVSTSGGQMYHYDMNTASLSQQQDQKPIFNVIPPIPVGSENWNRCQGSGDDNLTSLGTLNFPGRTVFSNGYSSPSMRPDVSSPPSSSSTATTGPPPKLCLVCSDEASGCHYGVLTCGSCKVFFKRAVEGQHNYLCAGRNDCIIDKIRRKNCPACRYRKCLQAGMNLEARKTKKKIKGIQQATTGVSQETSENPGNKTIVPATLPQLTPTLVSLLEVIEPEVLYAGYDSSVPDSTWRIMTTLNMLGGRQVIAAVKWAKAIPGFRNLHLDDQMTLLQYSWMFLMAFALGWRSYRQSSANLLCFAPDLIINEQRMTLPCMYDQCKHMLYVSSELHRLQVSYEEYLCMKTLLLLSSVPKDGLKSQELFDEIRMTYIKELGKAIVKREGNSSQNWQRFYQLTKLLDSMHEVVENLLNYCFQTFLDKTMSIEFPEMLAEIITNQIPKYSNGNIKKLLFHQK
# In short: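 Reporter read-out: fluorescence intensity following 2 h room-temperature LiveBLAzer B/G FRET substrate loading. Prior step: GR-bla HeLa cells held 4 h, then treated 18 h at 37 C.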
# [8] = qHTS assay for identifying genotoxic compounds that show differential cytotoxicity against isogenic chicken DT40 cell lines with known DNA damage response pathways - Rad54/Ku70 mutant cell line (AID 743015); details: DT40 Rad54/Ku70 mutant viability, CellTiter-Glo, 40 h; activity change, negative = cytotoxicity: at 66.8 µM (top of the series) unless noted; further: nearly all actives have a fitted effect of over 60% in size; further: potency means the concentration at half of the fitted maximal effect
# [9] = qHTS RealTime-Glo MT Cell Viability Assay in HEK293 cells - 8 hour (AID 1224887); further: nearly all actives have a fitted effect of over 50% in size; further: potency means the concentration at half of the fitted maximal effect
# In short: (§1)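 Tox21 screen in HEK293 using RealTime-Glo MT chemistry, with cells and reagent co-dispensed. Luminescence proportional to viable cell number was captured at intervals during 40 h compound exposure at 37 C.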
# [10] = qHTS assay to identify small molecule antagonists of the sonic hedgehog signaling (Shh) pathway (AID 1259369; calls by dose curve; further: nearly all actives have a fitted effect of over 45% in size; further: potency means the concentration at half of the fitted maximal effect)
# In short: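 Conditioned medium drives Shh signalling in 3T3Gli1-Luc cells; compounds in DMSO co-applied, 24hr at 37 C, then luciferase luminescence.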
# [11] = qHTS RealTime-Glo MT Cell Viability Assay in HEK293 cells - 40 hour (AID 1224874); details: RealTime-Glo luminescence; max response: stronger effect = lower value; further: nearly all actives have a fitted effect of over 50% in size; further: potency means the concentration at half of the fitted maximal effect
# In short: as §1
# [12] = qHTS assay to identify small molecule agonists of the vitamin D receptor (VDR) signaling pathway - cell viability counter screen (AID 743224); further: potency means the concentration at half of the fitted maximal effect; nearly all actives have a fitted effect of over 50% in size
# In short: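 Here cell health was gauged by luminescent ATP detection (CellTiter-Glo, 30 min RT) in VDR-bla cells that had been incubated with test compounds for 16 h at 37C and 5% CO2.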
# [13] = target: Androgen receptor (Homo sapiens) (UniProt P10275); assay: qHTS assay to identify small molecule antagonists of the androgen receptor (AR) signaling pathway (AID 743035; active means well fitted inhibition curve with a large enough effect in the signal ratio in the repeat runs, not every such curve was filed as active; inconclusive means weak or mixed curves, or effect the other way; inactive means no such curve, though single readings can be large or run the other way; the % refers to the signal ratio; further: on the % scale 0 is the no-effect control and ±100 the full control effect); details: HEK293 AR-UAS-bla, R1881-stimulated, beta-lactamase FRET, 16 h; activity change, negative = inhibition: at 58.5 µM (top of the series) unless noted
# UniProt P10275, sequence (P10275 whole entry, looked up): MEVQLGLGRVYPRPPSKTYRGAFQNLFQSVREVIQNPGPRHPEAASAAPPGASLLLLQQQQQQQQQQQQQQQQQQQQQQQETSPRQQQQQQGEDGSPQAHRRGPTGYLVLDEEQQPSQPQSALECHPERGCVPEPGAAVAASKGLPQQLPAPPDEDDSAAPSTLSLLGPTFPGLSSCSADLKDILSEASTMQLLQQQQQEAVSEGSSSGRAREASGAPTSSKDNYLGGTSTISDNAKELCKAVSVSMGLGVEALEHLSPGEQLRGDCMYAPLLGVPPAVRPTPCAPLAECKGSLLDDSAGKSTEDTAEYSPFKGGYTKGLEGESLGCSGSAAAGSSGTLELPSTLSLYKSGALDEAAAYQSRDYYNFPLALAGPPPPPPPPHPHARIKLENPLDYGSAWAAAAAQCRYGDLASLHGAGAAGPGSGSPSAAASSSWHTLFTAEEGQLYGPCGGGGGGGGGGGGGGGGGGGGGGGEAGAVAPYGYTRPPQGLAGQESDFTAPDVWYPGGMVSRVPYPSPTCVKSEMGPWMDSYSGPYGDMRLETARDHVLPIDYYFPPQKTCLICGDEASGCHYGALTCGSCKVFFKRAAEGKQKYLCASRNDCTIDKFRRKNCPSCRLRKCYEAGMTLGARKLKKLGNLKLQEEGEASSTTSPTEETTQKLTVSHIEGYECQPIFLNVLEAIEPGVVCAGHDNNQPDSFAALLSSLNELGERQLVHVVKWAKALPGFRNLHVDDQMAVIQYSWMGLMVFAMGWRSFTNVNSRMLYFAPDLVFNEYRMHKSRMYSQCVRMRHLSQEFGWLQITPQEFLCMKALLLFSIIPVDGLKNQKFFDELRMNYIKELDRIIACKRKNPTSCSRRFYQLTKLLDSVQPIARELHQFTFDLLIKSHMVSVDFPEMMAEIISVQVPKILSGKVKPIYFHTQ
# In short: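 Using qHTS, AR-UAS-bla GripTite HEK293 cells received compound, then R1881, and were cultured 16 h at 37C/5% CO2 before a 2 h room-temperature LiveBLAzer B/G FRET substrate step and fluorescence measurement.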
# [14] = qHTS assay to identify small molecule antagonists of the peroxisome proliferator-activated receptor delta (PPARd) signaling pathway - cell viability counter screen (AID 743213); details: PPARd-bla HEK293H viability, CellTiter-Glo luminescence, 17 h; viability change, negative = cytotoxic: at 62 µM (top of the series) unless noted; further: potency means the concentration at half of the fitted maximal effect; nearly all actives have a fitted effect of over 50% in size
# In short: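 Cytotoxicity counter screen: CellTiter-Glo luminescence read 30 min after addition, in the same wells as the reporter assay. There, PPARd UAS-bla HEK293H cells (3000/well) were treated 17 h at 37 C with compound and 300 nM L165041.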
# [15] = qHTS RealTime-Glo MT Cell Viability Assay in HEK293 cells - 16 hour (AID 1224872); further: nearly all actives have a fitted effect of over 50% in size; further: potency means the concentration at half of the fitted maximal effect
# In short: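 Viability tracked continuously by luminescence as live cells reduce a prosubstrate for NanoLuc; HEK293 cells preincubated 5 h, compound-treated at 37 C, and read at 0, 8, 16, 24, 32 and 40 h.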
# [16] = target: Androgen receptor (Homo sapiens) (UniProt P10275); assay: qHTS assay to identify small molecule agonists of the androgen receptor (AR) signaling pathway (AID 743036; active means well fitted activation curve with a large enough effect in the signal ratio in the repeat runs, with a control signal flat, not every such curve was filed as active; inconclusive means weak or mixed curves, or effect the other way; inactive means no such curve, though single readings can be large or run the other way; the % refers to the signal ratio; further: on the % scale 0 is the no-effect control and ±100 the full control effect); details: HEK293 AR-UAS-bla GripTite, beta-lactamase FRET ratio, 16 h; activation: at 62.4 µM (top of the series) unless noted
# In short: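 Fluorescence from a beta-lactamase FRET substrate served as read-out in AR-UAS-bla GripTite HEK293 cells. Cells were treated with DMSO-dissolved compounds for 16 h at 37C, then with LiveBLAzer B/G substrate for 2 h at room temperature.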
# [17] = system: thyroid hormone receptor (rat, GH3 cells); assay: qHTS assay to identify small molecule agonists of the thyroid receptor (TR) signaling pathway (AID 743066; calls by dose curve; further: on the % scale 0 is the no-effect control and ±100 the full control effect); details: GH3.TRE-Luc cells, TR agonist luciferase, 24 h; activation: at 83.9 µM (top of the series) unless noted
# Tags describe the fitted curve by direction and shape or compound fluorescence and quenching.
smiles,measurement,setting,value
Cc1ncc([C@@H](CCCCCCc2ccc3c(n2)NCCC3)CC(=O)O)cn1,Potency,[1],inactive
same,Potency,[2],"inconclusive: 13.7 µM [cytotoxic, partial curve, poor fit]"
same,Potency,[3],"inconclusive: 0.0611 µM [falling, full curve, poor fit]"
same,Potency,[4],"inconclusive: 3.47 µM [rising, full curve]"
same,"activity change, negative = inhibition",[5],inconclusive: -14.5%
same,"activity, negative = inhibition",[6],inconclusive: 0.0184%
O=C(O)CCNC(=O)c1ccc(N=Nc2ccc(O)c(C(=O)O)c2)cc1,Potency,[2],"inconclusive: 29.8 µM [cytotoxic, partial curve]"
same,Potency,[3],"inconclusive: 37.6 µM [falling, partial curve, poor fit]"
CC(=O)[C@@]1(O)CC[C@H]2[C@@H]3C[C@H](C)C4=CC(=O)C=C[C@]4(C)[C@@]3(F)[C@@H](O)C[C@@]21C,Potency,[7],active: 12.9 nM [inconclusive] and active: 3.5 nM
same,Potency,[8],"inconclusive: 4.52 µM [cytotoxic, partial curve, poor fit]"
same,Potency,[1],"inconclusive: 0.91 µM [cytotoxic, full curve, poor fit]"
same,Potency,[9],inactive
same,Potency,[10],active: 6.11 µM
CCn1c(=O)c2c(nc(/C=C/c3ccc(OC)c(OC)c3)n2C)n(CC)c1=O,Potency,[11],active: 1.69 µM
same,Potency,[9],active: 1.51 µM
same,Potency,[10],"inconclusive: 15 µM [inhibitor, partial curve]"
CC1(C)Cc2cccc(N)c2O1,Potency,[5],inactive
same,Potency,[12],"inconclusive: 19.5 µM [rising, partial curve, poor fit]"
CCC/C=C(\C=O)CC,Potency,[2],inactive
same,max response,[11],inactive: -24.3%
O=C(OCc1ccccc1)C(=O)OCc1ccccc1,Potency,[13],inactive
Cc1cc(=O)[nH]c(=S)[nH]1,Potency,[7],active: 23.9 µM
same,Potency,[3],inactive
same,Potency,[14],"inconclusive: 12.4 µM [cytotoxic, single point]"
O=C(CCCN1CCN(c2ccccn2)CC1)c1ccc(F)cc1,Potency,[8],"inconclusive: 33.5 µM [cytotoxic, single point]"
same,Potency,[15],"inconclusive: 19 µM [cytotoxic, partial curve]"
same,Potency,[11],"inconclusive: 10.7 µM [cytotoxic, partial curve]"
same,Potency,[9],"inconclusive: 19 µM [cytotoxic, partial curve]"
same,Potency,[10],inactive
COc1nccnc1CC(C)C,Potency,[15],inactive
Clc1cc(Cl)cc(Cl)c1,Potency,[14],"inconclusive: 1.08 µM [cytotoxic, single point]"
same,Potency,[9],inactive
CCOC(=O)[C@H](CCc1ccccc1)N[C@@H](C)C(=O)N1[C@H](C(=O)O)C[C@@H]2CCC[C@@H]21,Potency,[12],"inconclusive: 1.88 µM [rising, full curve, poor fit]"
same,Potency,[10],inactive
CC/C=C\CCOC(=O)C(C)C,Potency,[4],"inconclusive: 54.9 µM [cytotoxic, partial curve, poor fit]"
same,Potency,[12],"inconclusive: 21.9 µM [cytotoxic, full curve]"
O=C(CN1CCN(Cc2ccc3c(c2)OCO3)CC1)N1c2ccccc2Sc2ccccc21,Potency,[1],"inconclusive: 26.8 µM [cytotoxic, partial curve, poor fit]"
same,Potency,[16],inactive
same,activation,[17],inconclusive: -7.32% [phenotype inactive]
same,Potency,[11],"inconclusive: 10.7 µM [cytotoxic, partial curve, poor fit]"
CCN1CCC[C@H]1CNC(=O)c1cc(S(N)(=O)=O)ccc1OC,Potency,[8],inactive
O=C(CCBr)N1CCN(C(=O)CCBr)CC1,Potency,[7],inactive
Nc1cccc(S(=O)(=O)c2cccc(N)c2)c1,Potency,[17],inactive
same,Potency,[14],"inconclusive: 54.9 µM [rising, partial curve, poor fit]"
same,Potency,[15],inactive
SCCSCCS,Potency,[5],inactive
O=C(O)CSCC(=O)NC1CCSC1=O (centres undefined),Potency,[1],inactive
same,"activity change, negative = inhibition",[13],inconclusive: -2.03%
same,Potency,[16],inactive
